Reference: US12600782 (BIOTHEUS, dated 2026)

T1: human PD-L2 protein (purchased from AcroBiosystems) (human, UniProt Q9BQ51 20-219, limits assumed, biotinylated in the blocking assays)
T1 construct: Bought soluble protein; also called PD-L2 antigen; biotinylated human PD-L2 protein
T1 sequence (looked up): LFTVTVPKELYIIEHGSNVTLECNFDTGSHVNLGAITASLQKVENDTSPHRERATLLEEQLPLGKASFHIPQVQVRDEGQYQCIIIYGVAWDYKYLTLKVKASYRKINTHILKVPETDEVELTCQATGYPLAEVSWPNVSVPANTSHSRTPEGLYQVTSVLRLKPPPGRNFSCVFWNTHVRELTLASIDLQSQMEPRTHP

T2: human PD-L2 on CHO cells (CHO-hPD-L2 cells) (human, UniProt Q9BQ51 20-273)
T2 construct: whole, on cells; also called CHO-K1-PD-L1/PD-L2
T2 sequence (looked up): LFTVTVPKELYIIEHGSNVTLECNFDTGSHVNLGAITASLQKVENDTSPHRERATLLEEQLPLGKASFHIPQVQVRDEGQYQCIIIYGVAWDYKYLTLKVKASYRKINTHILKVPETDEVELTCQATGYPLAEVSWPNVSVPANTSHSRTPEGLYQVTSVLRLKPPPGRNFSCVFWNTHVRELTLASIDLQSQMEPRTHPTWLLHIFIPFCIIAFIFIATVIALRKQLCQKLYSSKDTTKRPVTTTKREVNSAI

B1: Bi-201 (bispecific antibody)
chain: QVQLVESGGGLVKPGGSLRLSCAASGHTFIIYAIGWFRQAPGKGLEFVATINWSGSMTNYADSVKGRFTISRDNAKNTVYLQMNSLKPDDTAVYYCAAYVGATISTAHSRYDYWGQGTLVTVSS[human IgG1 Fc with changes left out here]GGGGSGGGGSGGGGSGGGGSGEVQLVESGGGLVQPGGSLRLSCAASGRTFSSMTIGWFRQAPGKGLEFVSGIGWTSGLTVYADSVKGRFTISRDNAKNSMYLQMNSLRAEDTAVYYCAADSMNRGQFDYWGQGTLVTVSS
notes: Formula I format
B2: Bi-202 (bispecific antibody)
chain: QVQLVESGGGLVKPGGSLRLSCAASGHTFIIYAIGWFRQAPGKGLEFVATINWSGSMTNYADSVKGRFTISRDNAKNTVYLQMNSLKPDDTAVYYCAAYVGATISTAHSRYDYWGQGTLVTVSSGGGGGSGGGGSGGGGSGGGGSGEVQLVESGGGLVQPGGSLRLSCAASGRTFSSMTIGWFRQAPGKGLEFVSGIGWTSGLTVYADSVKGRFTISRDNAKNSMYLQMNSLRAEDTAVYYCAADSMNRGQFDYWGQGTLVTVSS[human IgG1 Fc with changes left out here]
notes: Formula II format

Key:
[1] = target: T1, human PD-L2 protein (purchased from …); assay: BLI (ForteBio), antibody on AHQ sensor, 100 nM PD-L2 antigen, 1:1 model
Protocol: (§1) ForteBio affinity determination was carried out according to existing methods (Estep, P et al., High throughput solution-based measurement of antibody-antigen affinity and epitope binning. MAbs, 2013.5(2): p. 270-8). In short, the sensor was equilibrated for 30 min under the line of the analysis buffer, and then the baseline was established after online detection for 60 s. The purified antibody obtained as described above was loaded onto the AhQ sensor online. […] Kinetic analysis was performed using a 1:1 binding model.

[2] = target: T3, human PD-L1 on CHO cells (CHO-hPD-L1 cells) (human, UniProt Q9NZQ7); assay: flow cytometry on CHO-hPD-L1 cells, PE anti-human IgG-Fc, MFI; table under the plot, unit from the concentration axis
T3 construct: whole, on cells; also called CHO-K1-PD-L1/PD-L2

[3] = target: T4, human PD-L1 protein (purchased from AcroBiosystems) (human, UniProt Q9NZQ7 partial chain, biotinylated in the blocking assay); assay: BLI (ForteBio), antibody on AHQ sensor, 100 nM PD-L1 antigen, 1:1 model
T4 construct: Bought soluble protein; also called PD-L1 antigen; biotinylated human PD-L1 protein
Protocol: as §1

[4] = target: T4, human PD-L1 protein (purchased from …); assay: flow cytometry blocking assay: antibody pre-incubated with biotinylated human PD-L1 protein (1 ug/ml), binding of PD-L1 to CHO-hPD-1 cells read as MFI; falling curve, the table under the plot calls the half-maximal concentration EC50; unit from the concentration axis
Protocol: (§2) The expanded CHO-hPD-1 cells were adjusted to a cell density of 2 ×10^6 cells/ml, and were added to 96-well flow plate at 100 μl/well, and centrifuged for later use. The purified mutant sample was diluted with PBS and diluted 3 times from […] for 12 points.
(§3) 28 purified sample at 4° C. for 30 min. The co-incubation sample was added to the above-mentioned 96-well flow plate with cells at 100 μl/well, incubated at 4° C. for 30 min, and washed twice with PBS. APC goat anti-mouse IgG (minimum×reactivity) antibody diluted 100 times with PBS (purchased from Biolegend®) was added at 100 μl/well, incubated at 4° C. for 30 min, and washed twice with PBS. PBS was added at 100 μl/well to resuspend cells, and detection was performed on a CytoFlex (Bechman) flow cytometer and the corresponding MFI was calculated.

[5] = target: T1, human PD-L2 protein (purchased from …); assay: flow cytometry blocking assay: antibody pre-incubated with biotinylated human PD-L2 protein (1 ug/ml), binding of PD-L2 to CHO-hPD-1 cells read as MFI (APC); falling curve, the table under the plot calls the half-maximal concentration EC50; unit from the concentration axis
Protocol: as §2, §3

[6] = target: T2, human PD-L2 on CHO cells (CHO-hPD-L2 …); assay: flow cytometry on CHO-hPD-L2 cells, PE anti-human IgG-Fc, MFI; table under the plot, unit from the concentration axis

Row | Binder | Kd [1] | koff [1] | kon [1] | EC50 [2] | Kd [3] | koff [3] | kon [3] | EC50 [4] | EC50 [5] | EC50 [6]
1 | B1 | 0.445 nM | 0.000234 s⁻¹ | 525000 M⁻¹ s⁻¹ | 4.78 nM | 0.481 nM | 0.000161 s⁻¹ | 334000 M⁻¹ s⁻¹ | 22.9 nM | 32.2 nM | 2.89 nM
2 | B2 | 1.2 nM | 0.000395 s⁻¹ | 329000 M⁻¹ s⁻¹ | 3.81 nM | 1.66 nM | 0.000343 s⁻¹ | 207000 M⁻¹ s⁻¹ | 11.5 nM | 20.8 nM | 1.56 nM
